Results: a compilation of properties of binary mixtures (doi:10.1016/j.jct.2019.105906)
Some of these densities may be calculated back from excess volumes.

Test: xn = mol fraction of the nth substance listed
Details: 100 kPa

## CCOC(C)=O + CCCC[n+]1ccn(C)c1.F[P-](F)(F)(F)(F)F
303.15 K, x2 = 0
  mass density: 888.6 kg/m3
308.15 K, x2 = 0
  mass density: 882.4 kg/m3
313.15 K, x2 = 0
  mass density: 876.2 kg/m3
318.15 K, x2 = 0
  mass density: 870 kg/m3
323.15 K, x2 = 0
  mass density: 863.8 kg/m3

## CCCC[n+]1ccn(C)c1.F[P-](F)(F)(F)(F)F + CCOC(C)=O
298.15 K, x1 = 0.1012
  mass density: 996.2 kg/m3
298.15 K, x1 = 0.1992
  mass density: 1073.5 kg/m3
298.15 K, x1 = 0.312
  mass density: 1143.7 kg/m3
298.15 K, x1 = 0.3985
  mass density: 1187.6 kg/m3
298.15 K, x1 = 0.5056
  mass density: 1233.1 kg/m3
298.15 K, x1 = 0.7054
  mass density: 1298.7 kg/m3
298.15 K, x1 = 0.7963
  mass density: 1322.4 kg/m3
298.15 K, x1 = 0.9185
  mass density: 1350.2 kg/m3
298.15 K, x1 = 1
  mass density: 1367.2 kg/m3
303.15 K, x1 = 0.1012
  mass density: 990.5 kg/m3
303.15 K, x1 = 0.1992
  mass density: 1068 kg/m3
303.15 K, x1 = 0.312
  mass density: 1138.5 kg/m3
303.15 K, x1 = 0.7054
  mass density: 1294.5 kg/m3
303.15 K, x1 = 0.7963
  mass density: 1318.1 kg/m3
303.15 K, x1 = 1
  mass density: 1363 kg/m3
308.15 K, x1 = 0.1012
  mass density: 984.9 kg/m3
308.15 K, x1 = 0.1992
  mass density: 1062.5 kg/m3
308.15 K, x1 = 0.5996
  mass density: 1258 kg/m3
308.15 K, x1 = 0.7054
  mass density: 1290.3 kg/m3
308.15 K, x1 = 0.9185
  mass density: 1341.5 kg/m3
308.15 K, x1 = 1
  mass density: 1358.7 kg/m3
313.15 K, x1 = 0.1012
  mass density: 978.9 kg/m3
313.15 K, x1 = 0.312
  mass density: 1128.3 kg/m3
313.15 K, x1 = 0.3985
  mass density: 1173 kg/m3
313.15 K, x1 = 0.5056
  mass density: 1219.5 kg/m3
313.15 K, x1 = 0.5996
  mass density: 1253.7 kg/m3
313.15 K, x1 = 0.7054
  mass density: 1286.1 kg/m3
313.15 K, x1 = 0.7963
  mass density: 1309.7 kg/m3
318.15 K, x1 = 0.1012
  mass density: 973.1 kg/m3
318.15 K, x1 = 0.312
  mass density: 1123.1 kg/m3
318.15 K, x1 = 0.3985
  mass density: 1168.2 kg/m3
318.15 K, x1 = 0.5996
  mass density: 1249.4 kg/m3
318.15 K, x1 = 0.7054
  mass density: 1281.9 kg/m3
323.15 K, x1 = 0.1012
  mass density: 967.5 kg/m3
323.15 K, x1 = 0.1992
  mass density: 1046.1 kg/m3
323.15 K, x1 = 0.312
  mass density: 1118 kg/m3
323.15 K, x1 = 0.3985
  mass density: 1163.3 kg/m3
323.15 K, x1 = 0.5996
  mass density: 1245.1 kg/m3
323.15 K, x1 = 0.7054
  mass density: 1277.7 kg/m3
323.15 K, x1 = 0.7963
  mass density: 1301.2 kg/m3
323.15 K, x1 = 0.9185
  mass density: 1328.5 kg/m3
323.15 K, x1 = 1
  mass density: 1346 kg/m3
